Laboratory results: the RNAGym collection of RNA variant scans (doi:10.7554/elife.90254)
The source gives no read counts; variants with many changes may rest on few reads.

B1: LINE1-mini (parent)
chain: GGCAGAGCUCAACACAGCGUGGCAAAGUGGCUGUGGCUAGACUGCC

Variants of: B1
Experiment: self-cleavage, relative activity (ratio to wild type); higher = more cleavage; in vitro, sequencing; the parent is a self-cleaving ribozyme

Variant	self-cleavage
C13G G19A A25U	0.06
G22C C23A G44C	0.45
G7C G30U G33A	0.18
U32A G40C C42A	0.04
A12G G27U C46U	0.01
G1A U9G G27C	0.23
A6G U28G G30A C31G G40U	0.03
A25U C31G C42A	0
U20G C31U G33A	0.04
C15U C23A A25C U32A C46A	0.03
C8A G22U C45U	0.26
A6U U34G C37U C46A	0.04
G30A G40C C45G	0.07
G17C G21U G22A G27C	0.3
A6G G17U G30C U38G	0.02
A4U A12G C18U U28A U32A	0.06
A14G G21C U32A A41U C42U	0
C8A C15U G21U U28A	0.23
A11U C13G G19U A26C C37G C46A	0
A4C G7C A39G C46G	0.05
G7U G22A G33C	0.03
A6C C23A U28C G36U	0.06
A4U U9G U20C G21A	0.12
C3A C15G C18A A39U	0.07

Variant	self-cleavage
G2C G7U G44C	0.09
U28A U32C U43G	0.05
A4U C18U U20G	0.02
U20A A25G C37U	0
C3U G30C U34C	0.08
G5U U9G A14U C15U G40A	0
G17A C31U C37U C42G C46G	0.01
G5U C23A C37A G40A	0.01
G33A G35U A41G	0.07
A6G C8A C10U G29C C31A	0.01
C3U A11U G22U A39U	0.08
A4U C18A U34A	0.01
G5U A14G G19U	0.06
G1U A4C C8A G35A	0.16
C10A G30U G40C	0.02
G2C C3U G5C A12C C13A A39C	0.05
G1A A26U C45U	1.74
C3G A16U A24C G36C G44A C45U	0.01
A6C A24G A25G	0.1
C3A C37G A39U	0.38
U20A G22A C23U C46G	0.21
G5U G7A U34A	0
G22A G29U C37G	0.01
G19U G30A C31G	0.14

Variant	self-cleavage
G19A A39U C46G	1.9
G1U G17C C18U	0.02
C3G G5U C10A	0.04
C10G C23U C45G	0.01
C3A C18G G40U G44C	0.04
A11G G17U U32A G36A	0.01
G21A U32G G33U	0.06
G1C C10U A24U G27U G30C G44A	0.02
C10A A16U U38G U43C	0.02
A6G U20G G27U	0.03
A11C C23A A25G	0.02
G5A U20G C42U U43C	0.12
C23G C37U A39C	0.46
A11C A26U G40C	0
G1C C3U U9C	0.07
C10A G21U G36A	0
G2U G5C G36A	0.04
G5A A39G A41U	0.04
U20G A26U U38A	0.44
G7C A26C G30C	0.28
G1A G2C G7A G30U	1.13
A6G G35A C45G	0.69
C23A A26U G35C	0.38
G5A G7C G29U C31G G36U A39C	0.01

Variant	self-cleavage
C3U A16U A26C C31U	0.03
C23G U32G G36U	0.03
C13A C42A G44U C45G	0.01
A6G G7C A16U A26G	0.01
C8U A26U G29A	0.03
C3G C10G G21C G22A G36C C45G	0.01
A4G A11U C31G U32G	0.01
C10A G22U C31U	0.02
G22C G29C G33U A41G	0.12
C10U G30U C31U	0.31
C3U C13U G17U G27U G35U	0.16
U20C C31U U32A	0.08
C3A C10A C23A	0
A11C G35C C37U G40C	0.01
G1A G7U U9A C13U A14U C15A	0.29
A4U A12U C13A C45A	0.13
A11C A16G C18A C31A U32C	0
C8U C13U G19A A26G G27U G30C C42A G44A	0.26
G17U G21A U38C	0.27
U9C A24G C42A	0.02
U9C C10U G17A A26G G30A C31A G36U	0.02
G7A A25U C45U	0.11
G29U G30A A39U C42A	0.02
C3A A11U A24C G27C	0.04

Variant	self-cleavage
C15G A24C C37G C46A	0.03
A11G A14U C15U G17A A26G G36U C42A C45G	0
U9A C23U C37U C46G	0.09
C13A C18U C23A U28A C31A	0.04
C3U G5C C8G C23U	0.19
C13U G17A U20A C23U U38A	0.03
G1U C10U G17C G40U A41U C46A	0.02
C8A U9A G27C	0.07
C15U G17C U32G U43C C46U	0
U20A G21U G29U G33A	1.24
G1A C23A U38C	1.03
U28G U38C C45U	0.25
G5U C8U U9G	0.21
G36U U38C C46U	0.02
G1C G2A C3G C13U	0.12
C10G G17A G30A U38A G44C	0.02
G1C G7C C13A A16C A24C C42U	0
C15U C18G C23G	0.06
G7A G21U A26C U43C G44U	0.43
C18A G21A G40A C46A	0.01
A14C G17C U34G	0.13
A6C A26C G27C G36C G44U	0.03
U20G G21U U28G	0.47
A11G C15U G21C G30C C42A	0

Variant	self-cleavage
A24G G33C C46G	0.06
A16G G27C G29U	0.59
G19C C23G G27U C37A A39U	0
A16G G22U G35A	0.02
G5A A11U G21A C23G A41G C42A	0.01
C13A C18G G21C G40U	0.01
G1U G21C G40U	0.18
A14C G36U A39G C46A	0
C31A G40A C46G	0.04
C10A C37A A39C	0.01
C13A U32A A39C	0.05
G1A G7A G29U	0.29
G2A A24C G29A G44A	1.22
C23U A24G C37U A41C	0
G7U A12G G33A	0.06
G1C A11U A14G G17U C23U A39U	0.01
G2U G7C U9C C31A	0.01
G17U U34G G44A	0.01
G1C C3G A16U A24G G35C G44C	0.01
G5A U32C G33C U34G	0.04
A26U G27A G35A U38A G44U	0.06
A6C A11U A26G	0.04
A14G G27A U32G	0.04
G19A G40U C46A	0.07

Variant	self-cleavage
C8G C15A G22U C31U U38A U43A	0.01
G19A G22U G27U	0.45
G1C A6U C10A C13U G19U A39C	0.02
G5U A12U A39U A41G U43G	0
C10A A16C A26U	0.02
A12G A16C A25C C37U	0.09
A12C U32A U38A	0.01
C10A C13U G27C U28C	0.04
G7U A11C U38G	0
C15U G17A A41C C42U C46G	0.01
A14U C15U U20C G21U	0.12
G29U G30U G33A G35U	0.13
G5C A6U G33A C45G	0.02
C18G G19C G22A G27C G29U	1.29
G2A C3A G7A	0.6
G7C A12U C15U C23A	0.07
C3U G21C A25G A26G G29C	0.13
A16U A24G G30A	0.07
A12U C13U G36U G40A	0.09
G1C A12C A16C	0
G27U U38G U43A	0
A4C C15U G30U G35C	1.84
C3G A11U G21U G29C	0.02
